Holding throughout (assay): cell-based or functional assay
In assay [1] the target is intermediate affinity hIL-2 receptor complex (IL-2Rβγ) (human) (UniProt P14784).
The target in assay [2] is intermediate affinity hIL-2 receptor (hIL-2Rβγ) on TF1+IL-2Rβ cells (human) (UniProt P14784).
Assay [3] deals with high-affinity hIL-2 receptor (IL-2Rαβγ) on NK-92 cells (human) (UniProt P01589).
In assay [4] the target is high-affinity hIL-2 receptor (IL-2Rαβγ) (human) (UniProt P01589).

B1: 1H3-hIgG1-L6-hIL-2 (E68K) (protein)
heavy: EVQLVESGGGLVQPGRSLKLSCAVSGFTFSDYAMAWVRQAPKKGLEWVATISYDGSRTYYRDSVKGRFTISRDNAKITLYLQMDSLRSEDTATYYCARHGSGYFDYWGQGVMVTVSS[not shown - about 450 residues with a human IgG1 Fc and changes]
light: DTVLTQSPALAVSPGERVTISCRASESVRTGVHWYQQKPGQQPKLLIYGASNLESGVPARFSGSGSGTDFTLTIDPVEADDTATYFCQQSWNDPFTFGSGTKLEIKRTVAAPSVFIFPPSDEQLKSGTASVVCLLNNFYPREAKVQWKVDNALQSGNSQESVTEQDSKDSTYSLSSTLTLSKADYEKHKVYACEVTHQGLSSPVTKSFNRGEC
Regarding B1, the Fold change from rhIL-2 (TF1 + IL-2Rβ), pSTAT5 titration in assay [1] was 0 fold. Besides, the Fold change from rhIL-2 (TF1 + IL-2Rβ) in assay [2] amounted to 1 fold. For the same molecule, in assay [3], the Fold change from rhIL-2 (NK-92) came out at 0 fold. For the same molecule, in assay [4], the Fold change from rhIL-2 (NK-92), pSTAT5 titration amounted to 2 fold.

B2: 1H3-hIgG1-L6-hIL-2 (H16E) (protein)
heavy: EVQLVESGGGLVQPGRSLKLSCAVSGFTFSDYAMAWVRQAPKKGLEWVATISYDGSRTYYRDSVKGRFTISRDNAKITLYLQMDSLRSEDTATYYCARHGSGYFDYWGQGVMVTVSS[not shown - about 450 residues with a human IgG1 Fc and changes]
light: DTVLTQSPALAVSPGERVTISCRASESVRTGVHWYQQKPGQQPKLLIYGASNLESGVPARFSGSGSGTDFTLTIDPVEADDTATYFCQQSWNDPFTFGSGTKLEIKRTVAAPSVFIFPPSDEQLKSGTASVVCLLNNFYPREAKVQWKVDNALQSGNSQESVTEQDSKDSTYSLSSTLTLSKADYEKHKVYACEVTHQGLSSPVTKSFNRGEC
Regarding B2, the Fold change from rhIL-2 (TF1 + IL-2Rβ), pSTAT5 titration in assay [1] was found to be 63 fold. Besides, the Fold change from rhIL-2 (TF1 + IL-2Rβ) in assay [2] was determined as 34 fold. In assay [3], this molecule gave a Fold change from hIL-2 (NK-92) of 1 fold and a Fold change from rhIL-2 (NK-92) of 0 fold. Besides, the Fold change from rhIL-2 (NK-92), pSTAT5 titration in assay [4] is 63 fold.

B3: 1H3-hIgG1-L6-hIL-2 (L72D) (protein)
heavy: EVQLVESGGGLVQPGRSLKLSCAVSGFTFSDYAMAWVRQAPKKGLEWVATISYDGSRTYYRDSVKGRFTISRDNAKITLYLQMDSLRSEDTATYYCARHGSGYFDYWGQGVMVTVSS[not shown - about 450 residues with a human IgG1 Fc and changes]
light: DTVLTQSPALAVSPGERVTISCRASESVRTGVHWYQQKPGQQPKLLIYGASNLESGVPARFSGSGSGTDFTLTIDPVEADDTATYFCQQSWNDPFTFGSGTKLEIKRTVAAPSVFIFPPSDEQLKSGTASVVCLLNNFYPREAKVQWKVDNALQSGNSQESVTEQDSKDSTYSLSSTLTLSKADYEKHKVYACEVTHQGLSSPVTKSFNRGEC
For the molecule B3, in assay [1], the Fold change from rhIL-2 (TF1 + IL-2Rβ), pSTAT5 titration was found to be 0 fold. For the same molecule, in assay [2], the Fold change from rhIL-2 (TF1 + IL-2Rβ) was 0 fold. The Fold change from rhIL-2 (NK-92) in assay [3] came to 2 fold. For the same molecule, the Fold change from rhIL-2 (NK-92), pSTAT5 titration in assay [4] came to 4 fold.

B4: 1H3-hIgG1-L6-hIL-2 (L72R) (protein)
heavy: EVQLVESGGGLVQPGRSLKLSCAVSGFTFSDYAMAWVRQAPKKGLEWVATISYDGSRTYYRDSVKGRFTISRDNAKITLYLQMDSLRSEDTATYYCARHGSGYFDYWGQGVMVTVSS[not shown - about 450 residues with a human IgG1 Fc and changes]
light: DTVLTQSPALAVSPGERVTISCRASESVRTGVHWYQQKPGQQPKLLIYGASNLESGVPARFSGSGSGTDFTLTIDPVEADDTATYFCQQSWNDPFTFGSGTKLEIKRTVAAPSVFIFPPSDEQLKSGTASVVCLLNNFYPREAKVQWKVDNALQSGNSQESVTEQDSKDSTYSLSSTLTLSKADYEKHKVYACEVTHQGLSSPVTKSFNRGEC
Consider B4, for which the Fold change from rhIL-2 (TF1 + IL-2Rβ), pSTAT5 titration in assay [1] came to 1 fold. In addition, in assay [2], the Fold change from rhIL-2 (TF1 + IL-2Rβ) came to 3 fold. For the same molecule, in assay [3], the Fold change from rhIL-2 (NK-92) is 3 fold. This molecule also displayed a Fold change from rhIL-2 (NK-92), pSTAT5 titration in assay [4] of 2 fold.

B5: 1H3-hIgG1-L6-hIL-2 (E68R) (protein)
heavy: EVQLVESGGGLVQPGRSLKLSCAVSGFTFSDYAMAWVRQAPKKGLEWVATISYDGSRTYYRDSVKGRFTISRDNAKITLYLQMDSLRSEDTATYYCARHGSGYFDYWGQGVMVTVSS[not shown - about 450 residues with a human IgG1 Fc and changes]
light: DTVLTQSPALAVSPGERVTISCRASESVRTGVHWYQQKPGQQPKLLIYGASNLESGVPARFSGSGSGTDFTLTIDPVEADDTATYFCQQSWNDPFTFGSGTKLEIKRTVAAPSVFIFPPSDEQLKSGTASVVCLLNNFYPREAKVQWKVDNALQSGNSQESVTEQDSKDSTYSLSSTLTLSKADYEKHKVYACEVTHQGLSSPVTKSFNRGEC
Regarding B5, the Fold change from rhIL-2 (TF1 + IL-2Rβ), pSTAT5 titration in assay [1] came out at 0 fold. In addition, the Fold change from rhIL-2 (TF1 + IL-2Rβ) in assay [2] was found to be 1 fold. In assay [3], this molecule had a Fold change from rhIL-2 (NK-92) of 1 fold. This molecule also registered a Fold change from rhIL-2 (NK-92), pSTAT5 titration in assay [4] of 3 fold.

B6: 1H3-hIgG1-L6-hIL-2 (D20A/F42S) (protein)
heavy: EVQLVESGGGLVQPGRSLKLSCAVSGFTFSDYAMAWVRQAPKKGLEWVATISYDGSRTYYRDSVKGRFTISRDNAKITLYLQMDSLRSEDTATYYCARHGSGYFDYWGQGVMVTVSS[not shown - about 450 residues with a human IgG1 Fc and changes]
light: DTVLTQSPALAVSPGERVTISCRASESVRTGVHWYQQKPGQQPKLLIYGASNLESGVPARFSGSGSGTDFTLTIDPVEADDTATYFCQQSWNDPFTFGSGTKLEIKRTVAAPSVFIFPPSDEQLKSGTASVVCLLNNFYPREAKVQWKVDNALQSGNSQESVTEQDSKDSTYSLSSTLTLSKADYEKHKVYACEVTHQGLSSPVTKSFNRGEC
On to B6, for which, in assay [1], the Fold change from hIL-2 (TF1 + IL-2Rβ), pSTAT5 fixed conc. was 2 fold and the Fold change from rhIL-2 (TF1 + IL-2Rβ), pSTAT5 titration worked out at 17 fold. In assay [2], the Agonistic Activity (TF1 + IL-2Rβ) is 70% and the Fold change from rhIL-2 (TF1 + IL-2Rβ) turned out to be 687 fold. In assay [3], this molecule displayed an Agonistic Activity (NK-92) of 70% and a Fold change from rhIL-2 (NK-92) of 1290 fold. For the same molecule, in assay [4], the Fold change from hIL-2 (NK-92), pSTAT5 fixed conc. came to 15 fold and the Fold change from rhIL-2 (NK-92), pSTAT5 titration was over 10000 fold.

B7: 1H3-hIgG1-L6-hIL-2 (L72H) (protein)
heavy: EVQLVESGGGLVQPGRSLKLSCAVSGFTFSDYAMAWVRQAPKKGLEWVATISYDGSRTYYRDSVKGRFTISRDNAKITLYLQMDSLRSEDTATYYCARHGSGYFDYWGQGVMVTVSS[not shown - about 450 residues with a human IgG1 Fc and changes]
light: DTVLTQSPALAVSPGERVTISCRASESVRTGVHWYQQKPGQQPKLLIYGASNLESGVPARFSGSGSGTDFTLTIDPVEADDTATYFCQQSWNDPFTFGSGTKLEIKRTVAAPSVFIFPPSDEQLKSGTASVVCLLNNFYPREAKVQWKVDNALQSGNSQESVTEQDSKDSTYSLSSTLTLSKADYEKHKVYACEVTHQGLSSPVTKSFNRGEC
For the molecule B7, in assay [1], the Fold change from rhIL-2 (TF1 + IL-2Rβ), pSTAT5 titration was found to be 0 fold. Besides, the Fold change from rhIL-2 (TF1 + IL-2Rβ) in assay [2] turned out to be 1 fold. This molecule yielded a Fold change from rhIL-2 (NK-92) in assay [3] of 1 fold. Further, in assay [4], the Agonistic Activity (NK-92), pSTAT5 titration came out at 80% and the Fold change from rhIL-2 (NK-92), pSTAT5 titration worked out at 1 fold.

B8: 1H3-hIgG1-L6-hIL-2 (D20A/F42P) (protein)
heavy: EVQLVESGGGLVQPGRSLKLSCAVSGFTFSDYAMAWVRQAPKKGLEWVATISYDGSRTYYRDSVKGRFTISRDNAKITLYLQMDSLRSEDTATYYCARHGSGYFDYWGQGVMVTVSS[not shown - about 450 residues with a human IgG1 Fc and changes]
light: DTVLTQSPALAVSPGERVTISCRASESVRTGVHWYQQKPGQQPKLLIYGASNLESGVPARFSGSGSGTDFTLTIDPVEADDTATYFCQQSWNDPFTFGSGTKLEIKRTVAAPSVFIFPPSDEQLKSGTASVVCLLNNFYPREAKVQWKVDNALQSGNSQESVTEQDSKDSTYSLSSTLTLSKADYEKHKVYACEVTHQGLSSPVTKSFNRGEC
Regarding B8, in assay [1], the Fold change from hIL-2 (TF1 + IL-2Rβ), pSTAT5 fixed conc. is 2 fold and the Fold change from rhIL-2 (TF1 + IL-2Rβ), pSTAT5 titration was determined as 13 fold. Also, in assay [2], the Agonistic Activity (TF1 + IL-2Rβ) was 80% and the Fold change from rhIL-2 (TF1 + IL-2Rβ) turned out to be 702 fold. In assay [3], the Agonistic Activity (NK-92) was determined as 80% and the Fold change from rhIL-2 (NK-92) was 9370 fold. Also, in assay [4], the Fold change from hIL-2 (NK-92), pSTAT5 fixed conc. was determined as 17 fold and the Fold change from rhIL-2 (NK-92), pSTAT5 titration was over 10000 fold.

B9: 1H3-hIgG1-L6-hIL-2 (D20H) (protein)
heavy: EVQLVESGGGLVQPGRSLKLSCAVSGFTFSDYAMAWVRQAPKKGLEWVATISYDGSRTYYRDSVKGRFTISRDNAKITLYLQMDSLRSEDTATYYCARHGSGYFDYWGQGVMVTVSS[not shown - about 450 residues with a human IgG1 Fc and changes]
light: DTVLTQSPALAVSPGERVTISCRASESVRTGVHWYQQKPGQQPKLLIYGASNLESGVPARFSGSGSGTDFTLTIDPVEADDTATYFCQQSWNDPFTFGSGTKLEIKRTVAAPSVFIFPPSDEQLKSGTASVVCLLNNFYPREAKVQWKVDNALQSGNSQESVTEQDSKDSTYSLSSTLTLSKADYEKHKVYACEVTHQGLSSPVTKSFNRGEC
For the molecule B9, the Fold change from rhIL-2 (TF1 + IL-2Rβ), pSTAT5 titration in assay [1] amounted to 2770 fold. In assay [2], the Agonistic Activity (TF1 + IL-2Rβ) lay in the range of 50 to 70%. In assay [3], this molecule gave a Fold change from hIL-2 (NK-92) of 10 fold and a Fold change from rhIL-2 (NK-92) of 239 fold. The molecule also returned a Fold change from rhIL-2 (NK-92), pSTAT5 titration in assay [4] of over 10000 fold.

B10: 1H3-hIgG1-L6-hIL-2 (L19A) (protein)
heavy: EVQLVESGGGLVQPGRSLKLSCAVSGFTFSDYAMAWVRQAPKKGLEWVATISYDGSRTYYRDSVKGRFTISRDNAKITLYLQMDSLRSEDTATYYCARHGSGYFDYWGQGVMVTVSS[not shown - about 450 residues with a human IgG1 Fc and changes]
light: DTVLTQSPALAVSPGERVTISCRASESVRTGVHWYQQKPGQQPKLLIYGASNLESGVPARFSGSGSGTDFTLTIDPVEADDTATYFCQQSWNDPFTFGSGTKLEIKRTVAAPSVFIFPPSDEQLKSGTASVVCLLNNFYPREAKVQWKVDNALQSGNSQESVTEQDSKDSTYSLSSTLTLSKADYEKHKVYACEVTHQGLSSPVTKSFNRGEC
Consider B10, for which the Fold change from rhIL-2 (TF1 + IL-2Rβ), pSTAT5 titration in assay [1] was determined as 0 fold. The Fold change from rhIL-2 (TF1 + IL-2Rβ) in assay [2] came out at 1 fold. The Fold change from hIL-2 (NK-92) in assay [3] is 1 fold. Moreover, the Fold change from rhIL-2 (NK-92), pSTAT5 titration in assay [4] is 0 fold.

(Values after US20240076343A1.)
